Test results reported in article PMC6008652.
Positions count from the first letter of the chain named. In names and notes the source's numbering stands. Results are given in words; binding and its absence hold for the method and conditions named. For some of these results: In cells and extracts the contact can be indirect. Some results given as binding are weak or reduced against the parent protein; the word gives no strength. For some of these results: Sequences can lack the tags named with a protein. Blank lines part the entries; values can stand above or below the molecule they belong to.

How the values were obtained:
[1] = target: T1, IQM4ΔC (truncated IQM4, amino acid residues 1-160) (Arabidopsis thaliana) (UniProt O64851); assay: far-Western, overlay or dot blot; CaM gel overlay: 50 µg protein from induced E. coli with pET32a-IQM4ΔC separated by SDS-PAGE, transferred to nitrocellulose, probed with biotinylated CaM5 in the presence of 5 mM EGTA; only the binder purified
T1 sequence: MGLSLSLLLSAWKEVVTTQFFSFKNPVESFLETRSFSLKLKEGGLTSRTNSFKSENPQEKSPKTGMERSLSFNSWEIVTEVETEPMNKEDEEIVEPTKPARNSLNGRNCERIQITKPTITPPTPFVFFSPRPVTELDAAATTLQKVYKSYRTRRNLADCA

[2] = target: T1, IQM4ΔC (truncated IQM4, amino acid residues 1-160) (Arabidopsis thaliana); assay: far-Western, overlay or dot blot; CaM gel overlay: 50 µg protein from induced E. coli with pET32a-IQM4ΔC separated by SDS-PAGE, transferred to nitrocellulose, probed with biotinylated CaM5 in the presence of 1 mM CaCl2; only the binder purified
[3] = target: BD-CaM5 (Arabidopsis calmodulin 5, full length ORF fused with the Gal4 DNA binding domain) (Arabidopsis thaliana) (UniProt Q682T9); assay: two-hybrid; Matchmaker Gal4 system, yeast strain AH109; bait in pGBKT7, prey in pGADT7; growth on SD-4 (lacking Leu, Trp, His, Ade), 5-7 days at 30°C
[4] = target: cEYFP-CaM5 (full-length CaM5 fused to the C-terminus of cEYFP) (Arabidopsis thaliana) (UniProt Q682T9); assay: split reporter; BiFC in Arabidopsis mesophyll protoplasts, 18 h at 23°C in the dark, confocal laser scanning microscopy
[5] = target: cEYFP-CaM5 (full-length CaM5 fused to the C-terminus of cEYFP) (Arabidopsis thaliana) (UniProt Q682T9); assay: split reporter; BiFC in onion epidermal cells, biolistic bombardment, overnight at 25°C in the dark, epifluorescence microscopy

binding [3]: binds
B2: AD-IQM4 (Arabidopsis thaliana IQM4, full length ORF fused with the Gal4 activation domain) (protein, UniProt O64851 1-532)
chain: MGLSLSLLLSAWKEVVTTQFFSFKNPVESFLETRSFSLKLKEGGLTSRTNSFKSENPQEKSPKTGMERSLSFNSWEIVTEVETEPMNKEDEEIVEPTKPARNSLNGRNCERIQITKPTITPPTPFVFFSPRPVTELDAAATTLQKVYKSYRTRRNLADCAVVVEELWWKTLDAAALNLSSVAFFEEEKHETAVSKWARARTRAAKVGKGLSKDEKAQKLALQHWLEAIDPRHRYGHNLHFYYDVWSASMSAQPFFYWLDIGDGKDVNLEHHPRSVLQKQCIKYLGPLEREAYEVIVEDGKLMNKQSMTLINSTEDSKSIFVLSTTRTLYVGQKKKGRFQHSSFLSGGATTAAGRLVAREGILEAIWPYSGHYLPTEDNFNEFISFLEENNVDMTNVKRCSVNEEYSSFNSSGYEEEATKEEEAEKKPAETIVTEEQEEEKERERPVFQLAKRLSCKWNSGVGPRIGCVRDYPMELQSQAFEQVSLSPRISPGSTRFPSPYGPIPSPRPSPRVRVSPRLAYMGIPSPRVQVNC

binding [4]: binds
binding [5]: binds
B4: nEYFP-IQM4 (full-length IQM4 fused to the C-terminus of nEYFP) (protein, UniProt O64851 1-532)
chain: B2 chain

The remaining lines, values behind:

Molecule: biotinylated CaM5 (His-tagged calmodulin 5 labeled with biotin) (from UniProt Q682T9 1-149)
binding [1]: binds
binding [2]: binds

B1: AD-IQM4^Δ143-144 (IQM4 with deletions of Leu143 and Gln144) (protein, UniProt O64851 1-532)
chain: MGLSLSLLLSAWKEVVTTQFFSFKNPVESFLETRSFSLKLKEGGLTSRTNSFKSENPQEKSPKTGMERSLSFNSWEIVTEVETEPMNKEDEEIVEPTKPARNSLNGRNCERIQITKPTITPPTPFVFFSPRPVTELDAAATTKVYKSYRTRRNLADCAVVVEELWWKTLDAAALNLSSVAFFEEEKHETAVSKWARARTRAAKVGKGLSKDEKAQKLALQHWLEAIDPRHRYGHNLHFYYDVWSASMSAQPFFYWLDIGDGKDVNLEHHPRSVLQKQCIKYLGPLEREAYEVIVEDGKLMNKQSMTLINSTEDSKSIFVLSTTRTLYVGQKKKGRFQHSSFLSGGATTAAGRLVAREGILEAIWPYSGHYLPTEDNFNEFISFLEENNVDMTNVKRCSVNEEYSSFNSSGYEEEATKEEEAEKKPAETIVTEEQEEEKERERPVFQLAKRLSCKWNSGVGPRIGCVRDYPMELQSQAFEQVSLSPRISPGSTRFPSPYGPIPSPRPSPRVRVSPRLAYMGIPSPRVQVNC
binding [3]: no binding

B3: AD-IQM4^L143N (IQM4 with Leu143 substituted by Asn) (protein, UniProt O64851 1-532)
chain: B2 chain with L143N
binding [3]: no binding
